# Assay results taken from PubChem BioAssay AID624296 (National Center for Advancing Translational Sciences (NCATS), 2012).
# The whole screen tested about 350,000 compounds, of which about 9,900 (2.8%) were called active. Inconclusive means that the source gave no clear call. Such entries were picked first, then a sample of the others. Calls come from the whole dose curve; as a rule, active = well fitted activation curve with a large enough effect; inconclusive = small, poorly fitted or top-dose-only effect; inactive = no such curve, though single readings can be large or run the other way. No potency is given beside an inconclusive call; the fits are too rough.
# Assay: A quantitative high throughput screen for small molecules that induce DNA re-replication in MCF 10a normal breast cells. Note: nearly all actives have a fitted effect of over 50% in size.
# Details: MCF 10A DNA re-replication, Hoechst nuclear intensity, 48 h; series mostly up to 46.1 µM
# Potency is the fitted concentration of half-maximal effect; tags give direction and shape of the fitted curve.
row,SMILES,Potency
1,CC(C)(Cc1cc(CC(C)(C)C(=O)O)cc(C(C)(C)C)c1)C(=O)O,"inconclusive [activator, single point]"
2,CCOC(=O)c1ccc(S(=O)(=O)NNC(=O)c2cccc(N(C)C)c2)cc1,inactive
3,CCc1ccc(/C=C2/SC(=S)N(CC(=O)Nc3nc4ccccc4s3)C2=O)cc1,"inconclusive [activator, full curve, poor fit]"
4,O=C(Nc1ccc(S(=O)(=O)N2CCOCC2)cc1)c1ccc([N+](=O)[O-])cc1Cl,"inconclusive [activator, single point]"
5,Cc1noc(C)c1S(=O)(=O)N(CC(=O)NCc1ccccc1)c1ccc(C(C)C)cc1,"inconclusive [activator, single point]"
6,Cc1cc(N=Nc2ccc(Cl)cc2)cc(CN2CCCC2)c1O,"inconclusive [activator, single point]"
7,CC(C)C[C@@H](CO)N(Cc1ccccc1)S(=O)(=O)N(Cc1ccccc1)[C@H](CO)CC(C)C,"inconclusive [activator, single point]"
8,CCCCCCCn1ccc(=N)cc1,"inconclusive [activator, partial curve, poor fit]"
9,COc1ccc(C2CC(=O)CCN2S(=O)(=O)c2ccc(C)cc2)cc1 (stereo not drawn),inactive
10,N#C/C(=C/c1ccc(Br)s1)C(=O)NCCc1c[nH]c2ccccc12,"inconclusive [activator, partial curve, poor fit]"
11,CC(C)(C)Cc1nc2ccccc2n1CCc1ccccc1,"inconclusive [activator, single point]"
12,Fc1ccccc1COc1ccc(Br)cc1CNCc1ccncc1,"inconclusive [activator, single point]"
13,Cc1cc2c(c(C)c1CCO[C@@H]1O[C@H](CO)[C@@H](O)[C@H](O)[C@H]1O)C(=O)[C@@H](C)[C@@H]2O,active: 18.4 µM
14,CC(=O)c1ccc(N2Cc3ccccc3/C2=N\C(=O)Nc2ccc(Cl)cc2)cc1,"inconclusive [activator, partial curve, poor fit]"
15,CC(=NNC(=O)c1cc(C)oc1C)c1ccc(Br)s1,inactive
16,COc1ccc(N(CC(=O)N/N=C/c2ccco2)S(=O)(=O)c2ccccc2)cc1,"inconclusive [activator, single point]"
17,CCOc1cccc(OCCNC2CCCC2)c1,"inconclusive [activator, single point]"
18,C/C(=N\NC(=O)c1ccccc1O)c1cccs1,inactive
